From PMC4336329 (PLoS ONE, 2015) come the findings set out here.

SMILES strings stand for the structures. Screen size: about 310,000 compounds; about 14,000 (4.5%) showed an effect of 50% or more. The effect is printed as a negative number. The list shows a part of the results.
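Note: peak tail current of the secondary pulse compared with the same well before compound.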

human ether-à-go-go-related gene (hERG) potassium channel, sequence (Q12809 whole entry, looked up): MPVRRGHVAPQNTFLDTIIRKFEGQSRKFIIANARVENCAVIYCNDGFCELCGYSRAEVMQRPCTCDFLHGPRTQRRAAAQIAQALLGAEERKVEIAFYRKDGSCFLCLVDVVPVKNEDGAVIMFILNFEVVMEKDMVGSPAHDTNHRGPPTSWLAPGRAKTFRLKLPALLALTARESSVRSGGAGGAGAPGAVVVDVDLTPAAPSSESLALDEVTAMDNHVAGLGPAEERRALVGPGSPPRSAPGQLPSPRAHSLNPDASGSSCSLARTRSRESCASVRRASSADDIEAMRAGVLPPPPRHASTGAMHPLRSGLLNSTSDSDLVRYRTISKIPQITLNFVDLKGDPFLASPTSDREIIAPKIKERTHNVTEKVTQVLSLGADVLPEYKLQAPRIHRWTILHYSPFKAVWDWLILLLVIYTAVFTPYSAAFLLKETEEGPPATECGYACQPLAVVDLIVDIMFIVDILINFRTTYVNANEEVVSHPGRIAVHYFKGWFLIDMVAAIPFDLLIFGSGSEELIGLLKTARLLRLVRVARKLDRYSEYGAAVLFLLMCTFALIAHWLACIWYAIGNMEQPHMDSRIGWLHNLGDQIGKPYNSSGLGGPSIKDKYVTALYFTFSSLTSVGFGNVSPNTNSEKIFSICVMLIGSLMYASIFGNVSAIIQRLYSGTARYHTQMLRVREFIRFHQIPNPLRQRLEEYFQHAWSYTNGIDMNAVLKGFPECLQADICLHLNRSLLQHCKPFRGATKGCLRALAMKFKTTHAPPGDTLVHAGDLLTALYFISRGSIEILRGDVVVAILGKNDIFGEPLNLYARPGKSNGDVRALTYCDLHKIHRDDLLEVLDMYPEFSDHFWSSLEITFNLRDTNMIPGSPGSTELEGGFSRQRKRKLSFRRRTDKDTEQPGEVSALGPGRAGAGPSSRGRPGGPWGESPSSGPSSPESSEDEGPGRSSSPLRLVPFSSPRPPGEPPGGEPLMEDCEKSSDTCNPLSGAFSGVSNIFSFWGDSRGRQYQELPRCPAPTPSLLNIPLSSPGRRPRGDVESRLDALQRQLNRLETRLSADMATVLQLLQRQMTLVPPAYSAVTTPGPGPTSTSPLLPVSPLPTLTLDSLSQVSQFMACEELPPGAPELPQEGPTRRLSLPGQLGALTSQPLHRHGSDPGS

The test concerns the target human ether-à-go-go-related gene (hERG) potassium channel (human, UniProt Q12809). Put plainly: primary screen, population patch clamp on CHO cells stably expressing hERG.
Consider `O=S(=O)(Nc1ccc(F)cc1)N1CCCCCC1`, for which the “hERG current change (%, negative = inhibition) at 10uM” value is on record as -15.6%.
For the molecule `N#Cc1ccc(S(=O)(=O)NCC(=O)OCC(=O)N2CCCC2=O)cc1`, the “hERG current change (%, negative = inhibition) at 10uM” value came out at 2.33%.
For `CCOC(=O)CCCCC(=O)c1[nH]c(=O)[nH]c1CSc1nc(-c2ccccc2)c(C#N)c(=O)[nH]1`, the “hERG current change (%, negative = inhibition) at 10uM” value is 17.1%.
Next, `COc1ccc(OC)c(NC(=O)c2ccc3c(c2)C(=O)N(CC2CCCO2)C3=O)c1` (centres unmarked): 1.37%; `O=C1CCCN1C(=O)CSc1nnnn1-c1ccccc1`: -4.82%.
As for `Cc1ccc(N2C(=O)C3CCCN3C2=S)cc1` (centres unmarked), the “hERG current change (%, negative = inhibition) at 10uM” value was found to be 15.3%.
In the case of `Cc1cc2nc[nH]c2cc1[N+](=O)[O-]`, the “hERG current change (%, negative = inhibition) at 10uM” value came to 12.2%.
Next, `Cc1ccc(NC2=C(Cl)C(=O)OC2OC(C)C)c(C)c1` (centres unmarked): -28.9%; `O=C(O)C1CCCCC1C(=O)NCCc1cccc(Cl)c1` (centres unmarked): -0.556%; `O=C(O)C1(c2ccccc2)CCN(S(=O)(=O)c2ccc(Cl)cc2)CC1`: 23.2%.
Take `O=C(O)CCn1c(SCCc2ccccc2)nc2ccccc21`: the “hERG current change (%, negative = inhibition) at 10uM” value is on record as 15.5%.
On to `CCCCC(SCC(=O)Nc1ccccc1)C(=O)O` (centres unmarked), for which the “hERG current change (%, negative = inhibition) at 10uM” value was found to be 12.9%.
The result for `O=C(NCc1cccnc1)C(=O)NCC1OCCN1S(=O)(=O)c1cc(F)ccc1F` (centres unmarked) reads -9.68%; that for `Cc1cc(C)c(Cn2c3ccccc3c3cnn(CC(=O)NCc4ccccn4)c(=O)c32)c(C)c1`, 13.4%; that for `Cn1cc(Cl)c(C(=O)OCC(=O)Nc2nc(-c3ccc(Br)cc3)cs2)n1`, 0.0195%.
With `CC(=O)Nc1ccc(SCC(=O)NC(=O)c2ccccc2Br)cc1`, the “hERG current change (%, negative = inhibition) at 10uM” value was 0.691%.
The result for `O=C(CCCn1c(=S)[nH]c2ccccc2c1=O)N1CCCCC1` reads -10.4%; that for `O=C(CN(c1ccc(F)cc1)S(=O)(=O)c1ccccc1)NC1CCCCCC1`, 23.7%.
`Cc1c(NC(=O)C(C)Sc2ccccc2)c(=O)n(-c2ccccc2)n1C` (centres unmarked): the “hERG current change (%, negative = inhibition) at 10uM” value is reported as -1.92%.
The result for `COCCCNC(=O)CCNS(=O)(=O)c1ccc(C)cc1` reads -1.45%.
On to `C/C(=N\NC(=O)COc1ccc(C#N)cc1)c1ccc(N2CCOCC2)cc1`, for which the “hERG current change (%, negative = inhibition) at 10uM” value is on record as -4.36%.
The result for `O=c1oc(-c2cccs2)nc2ccc(Br)cc12` reads 8.92%.
Next, `CCCCN(C)C(=O)CCC(=O)NNc1nc2ccccc2c2nc(C)nn12`: -16%.
Next, `Cc1cccc(NC(=O)/C=C/c2ccc(Cl)cc2)n1`: 4.16%; `COc1cc(C(=O)N2CCSCC2)ccc1OC1CCN(C(C)=O)CC1`: 17%; `COc1ccc(-n2cc(CN3CCC(OC)CC3)c(-c3cccc(F)c3)n2)cc1`: -13.5%.
With `COc1nc(N)nc(NC(=O)c2cccs2)c1N=O`, the “hERG current change (%, negative = inhibition) at 10uM” value was determined as 9.21%.
The result for `Cc1ccc(S(=O)(=O)N2[C@@H](c3ccccc3F)C(C(=O)O)=CC[C@H]2c2cccs2)cc1` reads 26.6%; that for `CC(C)NC(=S)N=Nc1c(O)[nH]c2ccc([N+](=O)[O-])cc12`, 16.9%; that for `O=S(=O)(Nc1cccc2ncccc12)c1cccc(C(F)(F)F)c1`, 4.14%.
`CCC(=O)NNc1cc(=O)c2c(=O)n(C)c(=O)n(C)c2[nH]1`: the “hERG current change (%, negative = inhibition) at 10uM” value is given as -1.93%.
On to `Cc1ccc(N2C(=O)N(c3ccc(C)cc3)C3CS(=O)(=O)CC32)cc1` (centres unmarked), for which the “hERG current change (%, negative = inhibition) at 10uM” value is on record as 2.93%.
In the case of `C#CCCc1ccccc1/C=[N+](/C)[O-]`, the “hERG current change (%, negative = inhibition) at 10uM” value is 18.9%.
Next, `CCN1CCCC1CN(Cc1cc2cc(OC)ccc2[nH]c1=O)C(=O)NCc1ccccc1` (centres unmarked): -46.4%.
For `CC(=O)c1cc(C#N)c(SCc2ccc([N+](=O)[O-])cc2)nc1C`, the “hERG current change (%, negative = inhibition) at 10uM” value was found to be 17.7%.
Next, `CC(=O)Nc1ccc2nc(NC(=O)c3ccc([N+](=O)[O-])s3)sc2c1`: 8.75%; `Nc1nonc1-n1nnc(C(=O)N/N=C/c2ccccc2Cl)c1-c1ccc2c(c1)OCO2`: 5.9%; `CC1(C)CC2CC(C)(CN2C(=O)c2cccs2)C1` (centres unmarked): 1.71%.
With `Cc1cc(C)c(S(=O)(=O)N2CCN(C(=O)CCOc3ccccc3C)CC2)c(C)c1`, the “hERG current change (%, negative = inhibition) at 10uM” value was -10.7%.
The result for `CSc1nc2ccc(NC(=O)NC(=O)c3c(F)cccc3F)cc2s1` reads 6.29%.
Take `COC(=O)C1=C(C)N(c2ccc(OC)c(OC)c2)C(=O)/C1=C\c1ccco1`: the “hERG current change (%, negative = inhibition) at 10uM” value is listed as -1.01%.
Next, `COc1cccc(NC(=S)N(Cc2ccc(Cl)cc2)Cc2ccc(C(=O)O)cc2)c1`: 25.6%; `CCCNC(=O)Cn1c(=O)oc2cc(S(=O)(=O)N3CCCC3)ccc21`: 11.9%.
As for `Cc1ccccc1CS(=O)(=O)Cc1ccc(C(=O)NC2CCCC2)o1`, the “hERG current change (%, negative = inhibition) at 10uM” value is on record as -3.51%.
Next, `O=C(/C=C/c1ccco1)N1CCN(c2ncccn2)CC1`: -12.6%.
Next, `O=S(=O)(NCC1CCN(Cc2ccccc2)CC1)c1ccccc1C(F)(F)F`: -37.3%; `CCCN1CCC(=O)N([C@H](CSc2ccc(OC)cc2)c2ccccc2)CC1`: -76.5%; `CCOc1ccc(C(=O)C[n+]2ccccc2C)cc1.[Cl-]`: -16.8%.
The result for `CC(=O)c1ccc(C(=O)N2CCc3c([nH]c4ccccc34)C2c2cccc(C)n2)s1` (centres unmarked) reads -14.9%; that for `Cn1c(CCNC(=O)c2cccs2)nnc1SCC(=O)Nc1nc(-c2ccccc2)cs1`, -7.06%.
In the case of `NS(=O)(=O)c1ccc(CCNC(=O)CCCCCn2c(=S)[nH]c3ccc(Br)cc3c2=O)cc1`, the “hERG current change (%, negative = inhibition) at 10uM” value is listed as 9.32%.
The result for `CCCCOc1ccc(OCCSc2nc3ccccc3n2CC(=O)O)cc1` reads 13.2%; that for `Cc1cc(C)c(C#N)c(SCc2cn3c(C)cccc3n2)n1`, -3.15%; that for `COCCSc1nc2c(c(=O)[nH]c(=O)n2C)n1Cc1cccc(C)c1`, -45.6%.
Take `CC(C)(C)NC(=O)c1cc(-c2ccc3c(c2)OCO3)nc2ccccc12`: the “hERG current change (%, negative = inhibition) at 10uM” value is given as -4.72%.
The result for `CCCNS(=O)(=O)c1ccc(NC(=O)c2cccnc2)cc1` reads -4.88%; that for `COc1ccc(C(=O)N/N=C/c2ccc3cccc(OCc4ccccc4)c3n2)cc1`, 14.3%.
The result for `Cc1occc1-c1nnc(SCC(=O)N(C)C)o1` reads -0.525%; that for `O=C(NNC(=O)C1CCN(Cc2ccccc2)CC1)c1cccs1`, 10.8%.
As for `Cc1ccc(SCC(=O)Nc2ccc(N3CCOCC3)cc2)cc1`, the “hERG current change (%, negative = inhibition) at 10uM” value was determined as 14%.
Turning to `CCOC(=O)C1=C(C)NC(SCC(=O)O)=NC1c1ccccc1` (centres unmarked), the “hERG current change (%, negative = inhibition) at 10uM” value amounted to 5.32%.
Next, `O=C(NCC1CCCO1)C1CC(=O)N(c2ccccc2)C1` (centres unmarked): -9.86%; `COc1ccccc1CNS(=O)(=O)c1ccc(NC(C)=O)cc1`: -2.78%.
The result for `Cc1ccc(OCc2ccc(C(=O)Nc3nccs3)o2)cc1C` reads 1.4%; that for `Cc1cccc(N(CC(=O)NCc2ccco2)C(=O)CCC(=O)Nc2nccs2)c1C`, 13.1%; that for `O=C(c1cccs1)N1CCCC(N2CCN(c3cccc(C(F)(F)F)c3)CC2)C1` (centres unmarked), -68.4%.
On to `O=C(NNC(=S)Nc1ccccc1Cl)c1ccncc1`, for which the “hERG current change (%, negative = inhibition) at 10uM” value turned out to be 9.23%.
The result for `O=C(c1cc2nc(-c3ccc(F)cc3)cc(C(F)(F)F)n2n1)N1CCOCC1` reads 8.35%; that for `CCOc1ccc(NC(=S)NC(=O)/C=C/c2ccc(Br)cc2)c([N+](=O)[O-])c1`, 10.7%; that for `CCCCNC(=O)c1ccc(NC(=O)C2CCCO2)cc1` (centres unmarked), 4.17%.
Next, `CC(NC(=O)COC(=O)c1cc(Cl)nc(Cl)c1)c1ccccc1` (centres unmarked): 0.266%; `COc1ccc(Cl)cc1NC(=O)NCC1CCN(Cc2cc(C)ccc2C)CC1`: -67.7%; `COc1ccc2[nH]c(-c3ccccc3)cc2c1`: 17.4%.
Turning to `CCN1C(=O)C(C(=O)NC(C)c2ccccc2)C2CC1(C)Oc1ccccc12` (centres unmarked), the “hERG current change (%, negative = inhibition) at 10uM” value is reported as -13.5%.
In the case of `COc1ccccc1N1CCN(C(=O)c2cccc(Oc3ccccc3)c2)CC1.Cl`, the “hERG current change (%, negative = inhibition) at 10uM” value is reported as -17.9%.
Next, `COc1ccc(C(CNC(=O)COc2cccc(C)c2)N2CCCC2)cc1` (centres unmarked): -16.2%.
In the case of `Cc1ccc(-c2csc3nc(-c4ccncc4)[nH]c(=O)c23)cc1`, the “hERG current change (%, negative = inhibition) at 10uM” value is listed as -7.25%.
The result for `Cc1ccc(NC(=O)NC2CC(=O)N(c3ccc4c(c3)OCCO4)C2)cc1C` (centres unmarked) reads 4.96%.
Next, `Cc1ccc(NC(=S)NC2CCN(Cc3ccccc3)CC2)cc1`: -46%; `CCOC(=O)C1=C2c3cc(OC)c(OC)cc3CC(C)(C)N2C(=O)C1=O`: 2.44%; `COc1ccc(N(C(=O)c2csnn2)C(C(=O)NC2CCCC2)c2cccs2)cc1` (centres unmarked): -17.7%.
The result for `O=c1[nH][nH]c(C(F)(F)F)c1C=NCc1ccc(Cl)cc1` reads -1.88%.
With `CN1CCN(C(=O)/C(=C/c2ccc(N(C)C)cc2)NC(=O)c2ccccc2)CC1`, the “hERG current change (%, negative = inhibition) at 10uM” value is -17.5%.
Take `O=C1CCCN1CC(=O)N1CCCC(Nc2cccc(F)c2)C1` (centres unmarked): the “hERG current change (%, negative = inhibition) at 10uM” value is given as 1.96%.
Next, `Cc1cc(N2CCN(c3ccccn3)CC2)n2cc(-c3ccccc3)nc2n1`: -72.3%.
On to `Brc1ccc2nc(N3CCCC3)sc2c1`, for which the “hERG current change (%, negative = inhibition) at 10uM” value was 13%.
Consider `OCCC1CN(Cc2nc3ccc(F)cc3[nH]2)CCN1C1CCCC1` (centres unmarked), for which the “hERG current change (%, negative = inhibition) at 10uM” value is on record as -15.9%.
The result for `c1ccc(OCCCc2nc(-c3ccccn3)no2)cc1` reads -0.0161%.
The result for `Cc1cccnc1NC(=O)CSc1nnc(COc2ccc(C(C)C)cc2)n1C` reads 4.48%.
